Assay results as given in PubChem BioAssay AID504832 (National Center for Advancing Translational Sciences (NCATS), 2011).
About 18,000 (5.8%) of roughly 310,000 compounds were called active. Inconclusive means that the source gave no clear call. Such entries were picked first, then a sample of the others. The call rests on the fitted dose curve; in most records, active means well fitted inhibition curve with a large enough effect; inconclusive means small, poorly fitted or top-dose-only effect, or another doubt; inactive means no such curve, though single readings can be large or run the other way. No potency is given beside an inconclusive call; the fits are too rough.
On the % scale 0 is the no-effect control and ±100 the full control effect; potency means the concentration at half of the fitted maximal effect; tags describe the fitted curve by direction and shape.

Test: Primary qHTS for delayed death inhibitors of the malarial parasite plastid, 48 hour incubation
Conditions: P. falciparum luciferase growth in erythrocytes; series mostly up to 28.7 µM
How it was run: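 Luciferase-expressing P. falciparum in infected erythrocytes (2% hematocrit, 0.1% parasitemia final) in RPMI 1640/0.5% Albumax were exposed to compound for 48 hours at 37 C, 5% CO2; growth read as luminescence.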
With `COCCn1c(C)cc(C2=NNC(=Nc3ccc(OC)cc3)SC2)c1C` the Potency was active: 13.1 µM. In the case of `O=c1c(Oc2ccccc2Br)c(C(F)(F)F)oc2c(CN3CCCC3)c(O)ccc12`, the Potency is reported as active: 10.4 µM. For `CO[C@H]1C=CO[C@@]2(C)Oc3c(C)c(O)c4c(O)c(c(C=NN5CCN(C)CC5)c(O)c4c3C2=O)NC(=O)C(C)=CC=C[C@H](C)[C@H](O)[C@@H](C)[C@@H](O)[C@@H](C)[C@H](OC(C)=O)[C@@H]1C`, the Potency was active: 1.17 µM. With `CC(=O)N1CCN(S(=O)(=O)c2cccc(C(=O)Nc3ccc(F)c(F)c3)c2)CC1` the Potency was “inactive”. For `COc1cc(NC(=O)c2cc(Cl)ccc2Cl)ccc1-c1cc2ccccc2oc1=O`, the Potency was inconclusive [inhibitor, full curve, poor fit]. With `CCn1c(CC(=O)Nc2ccc(C)cc2)nnc1SCC(=O)NCCc1ccccc1` the Potency was inconclusive [inhibitor, single point]. In the case of `COc1ccc(NC(=O)CN(C)C(=O)c2c(C)nn(Cc3ccc(C)cc3)c2Cl)cc1`, the Potency is reported as inconclusive [inhibitor, partial curve, poor fit]. With `CCCc1cc(=O)[nH]c(SCC(=O)N2CCN(S(=O)(=O)c3ccc(Cl)cc3)CC2)n1` the Potency was inconclusive [inhibitor, partial curve]. For `CCOc1ccc(NC(=S)N(CCN2CCOCC2)Cc2cc3cc4c(cc3[nH]c2=O)OCCO4)cc1`, the Potency was inconclusive [inhibitor, single point]. With `CCC(=O)NC(c1ccc(N(C)C)cc1)c1c(O)ccc2ccccc12` (stereo not given) the Potency was inconclusive [inhibitor, single point]. For `CCNC(=O)CSc1nc2cc([N+](=O)[O-])ccc2n1-c1cccc(C(F)(F)F)c1`, the Potency was inconclusive [inhibitor, single point]. With `CCCCOc1ccc(CCC(=O)N/N=C/c2ccco2)cc1` the Potency was inconclusive [inhibitor, full curve, poor fit]. With `CCN(CC)CCNc1cc(C)c(C#N)c2nc3ccccc3n12` the Potency was inconclusive [inhibitor, single point]. In the case of `COCc1cc(C)nc(Nc2ccccc2C)c1C#N`, the Potency is reported as “inactive”. With `CC(=O)Nc1ccc(NC(=O)CN(c2ccc([N+](=O)[O-])cc2)S(=O)(=O)c2ccccc2)cc1` the Potency was “inactive”. In the case of `CCOCc1nnc(NC(=O)C2CCN(C(=O)C3CC(=O)N(c4ccc(C)cc4)C3)CC2)s1` (stereo not given), the Potency is reported as “inactive”. With `COC(=O)c1c(NC(=O)COc2ccc(Cl)cc2Cl)sc2c1CC(C)(C)NC2(C)C` the Potency was active: 8.28 µM. For `Clc1ccc(Cl)c(OCCCCN2CCCCC2)c1`, the Potency was “inactive”. With `COc1c(Cl)cc(Cl)cc1CNCCNCC(C)O` (stereo not given) the Potency was inconclusive [inhibitor, partial curve, poor fit]. For `OC(CNCCc1ccc(Cl)cc1)COc1cc(Cl)ccc1Cl` (stereo not given), the Potency was inconclusive [inhibitor, partial curve, poor fit]. With `CO/N=C/C(c1ncc(C(F)(F)F)cc1Cl)S(=O)(=O)c1ccccc1` (stereo not given) the Potency was active: 10.4 µM. For `CC(NCc1ccc(S(N)(=O)=O)cc1)C(=O)Nc1ccc([N+](=O)[O-])cc1Cl` (stereo not given), the Potency was “inactive”. With `Cc1occc(=O)c1OCc1ccccc1` the Potency was inconclusive [inhibitor, single point]. With `O=C(CCCN1C(=O)/C(=C\c2cccs2)SC1=S)Nc1ccc(O)cc1C(=O)O` the Potency was “inactive”. For `Cc1ccc2[nH]c3c(NCCN4CCOCC4)ncnc3c2c1`, the Potency was active: 4.15 µM. In the case of `CCOCCCn1c(SC(C(=O)Nc2cc(C)ccc2C)c2ccccc2)nnc1-c1ccc(Cl)cc1` (stereo not given), the Potency is reported as active: 11.7 µM. For `N/C(=N\NC(=O)c1ccccc1Cl)c1cc2ccccc2oc1=O`, the Potency was “inactive”. For `Cc1nn(C)cc1CN(C)C(=O)CCc1nnc(CCC2CCCCC2)o1`, the Potency was “inactive”. With `Cc1ccccc1C1=NCC(=O)N(CC(=O)NCc2ccco2)c2sc3c(c21)CCCC3` the Potency was inconclusive [inhibitor, partial curve, poor fit]. In the case of `COc1ccc(NC(=O)CC2SC(=Nc3ccccc3)NC2=O)cc1` (stereo not given), the Potency is reported as inconclusive [inhibitor, partial curve, poor fit]. With `CCn1c2ccccc2c2cc(NC(=O)CSc3nnc(-c4cccc(OC)c4)n3N)ccc21` the Potency was inconclusive [inhibitor, partial curve]. In the case of `Cc1nc(Sc2ccc(Br)cc2)c(C#N)c(C)c1[N+](=O)[O-]`, the Potency is reported as inconclusive [inhibitor, partial curve, poor fit]. In the case of `Nc1nonc1-n1nnc(C(=O)N/N=C/c2ccc(F)cc2)c1-c1cccs1`, the Potency is reported as inconclusive [inhibitor, partial curve, poor fit]. In the case of `Cc1c(NC(=O)C(C)OC(=O)c2cc3c4ccccc4n(C)c3s2)c(=O)n(-c2ccccc2)n1C` (stereo not given), the Potency is reported as inconclusive [inhibitor, single point]. For `COc1ccc(C(=O)NCC(c2ccco2)N2CCCC2)cc1S(=O)(=O)N1CCCCC1C` (stereo not given), the Potency was inconclusive [inhibitor, partial curve]. With `Cc1ccc(NC(=O)COc2coc(CN3CCN(c4ccccc4)CC3)cc2=O)cc1` the Potency was inconclusive [inhibitor, full curve, poor fit]. For `COC(=O)c1ccc(C(NC(=O)OCc2ccccc2)/C(C)=C/[C@@H](C)C(=O)NCc2ccc(-c3ccccc3)cc2)cc1` (stereo not given in full), the Potency was inconclusive [inhibitor, partial curve]. In the case of `Cc1ccc(S(=O)(=O)N2CC(C)N(C(=O)N3CCOCC3)C2C)cc1` (stereo not given), the Potency is reported as “inactive”. With `COc1cc(/C=C2/SC(=S)N(Cc3ccccc3)C2=O)cc(OC)c1O` the Potency was inconclusive [inhibitor, partial curve]. With `COc1ccc(CN(CC2CCC(C(=O)O)CC2)C(=S)Nc2ccccc2C)cc1` (stereo not given) the Potency was inconclusive [inhibitor, single point]. For `Cc1ccc2nc3ccc(N4CCN(C)CC4)nn3c(=O)c2c1`, the Potency was “inactive”. With `COc1ccc(-c2nn(-c3ccccc3)cc2/C=C/C(=O)NCCCn2ccnc2)cc1OC` the Potency was active: 11.7 µM. In the case of `Cc1ccc([C@@H]2CC=C(C(=O)O)[C@H](c3ccc(F)cc3)N2S(=O)(=O)c2ccc(C)cc2)cc1`, the Potency is reported as “inactive”. In the case of `CSc1nsc(SC)c1C(=O)N1CCN(S(=O)(=O)c2ccc(C)cc2)C1C` (stereo not given), the Potency is reported as inconclusive [inhibitor, partial curve, poor fit]. For `COc1ccc(OC)c(NC(=O)NCCc2cccc(Cl)c2)c1`, the Potency was inconclusive [inhibitor, partial curve]. With `CCC1(C)Cc2ccccc2-c2nc(SCC(N)=O)[nH]c(=O)c21` (stereo not given) the activity change, negative = inhibition was inactive: 7.28% [at 0.00184 µM]. In the case of `Cc1nc2ccccc2c(=O)n1CCCn1ccnc1`, the Potency is reported as inconclusive [inhibitor, single point]. With `COCCNC(=O)c1ccc(Cn2c(SCC(=O)NCC3CCCO3)nc3ccc(Br)cc3c2=O)cc1` (stereo not given) the Potency was inconclusive [inhibitor, partial curve]. In the case of `Cc1cccn2c(=O)c(/C=C(\C#N)C(=O)NC3CCS(=O)(=O)C3)c(Oc3ccccc3Cl)nc12` (stereo not given), the Potency is reported as active: 4.65 µM. For `O=C(Nc1ccccc1N1CCOCC1)c1ccc(Cl)c(S(=O)(=O)N2CCCC2)c1`, the Potency was inconclusive [inhibitor, partial curve]. In the case of `CCc1cccc(NC(=O)C2CCCN(S(=O)(=O)c3cccnc3)C2)c1` (stereo not given), the Potency is reported as inconclusive [inhibitor, partial curve]. With `CC(C)C(NS(=O)(=O)c1cccc(C(F)(F)F)c1)C(=O)NCc1cccs1` (stereo not given) the Potency was inconclusive [inhibitor, single point]. With `Cc1ccccc1C(=O)N1CC(=O)Nc2ccc(F)cc2C1c1ccccc1` (stereo not given) the Potency was inconclusive [inhibitor, partial curve]. In the case of `Cc1c(C(=O)N(Cc2ccccc2)Cc2cccnc2)cnn1-c1ccc(F)cc1`, the Potency is reported as inconclusive [inhibitor, single point]. For `O=C(COc1ccc(F)cc1)Nc1c(C(=O)N2CCC(N3CCCCC3)CC2)oc2ccccc12`, the Potency was inconclusive [inhibitor, partial curve]. In the case of `CC(C)CN1CCN(CC#Cc2ccccc2)CC1CCO` (stereo not given), the Potency is reported as “inactive”. In the case of `COC(=O)CSc1nnc(-c2ccc(S(=O)(=O)N3CCCC3)cc2)n1C`, the Potency is reported as “inactive”. With `O=C1c2ccccc2C(=O)N1CSc1nnnn1-c1ccccc1` the Potency was “inactive”. For `CN(c1ccccc1)S(=O)(=O)c1ccc(C(=O)Nc2nnc(-c3ccco3)o2)cc1`, the Potency was inconclusive [inhibitor, single point]. For `Cc1ccc(S(=O)(=O)N2CCC(C(=O)OCC(=O)N(Cc3ccccc3)C(C)(C)C)CC2)cc1C`, the Potency was inconclusive [inhibitor, partial curve]. For `CCOC(=O)/C=C1/SCC(=O)N1CC(=O)Nc1cccc(F)c1`, the Potency was inconclusive [inhibitor, partial curve]. In the case of `O=C(CCc1ccc(O)c(O)c1)N/N=C/c1cc2c(cc1[N+](=O)[O-])OCO2`, the Potency is reported as inconclusive [inhibitor, single point]. For `O=c1cc(NS(=O)(=O)c2ccccc2)nc(SCc2c(Cl)cccc2Cl)[nH]1`, the Potency was inconclusive [inhibitor, partial curve, poor fit]. With `CCOC(=O)c1c(NC(=O)c2cccc(N3C(=O)CCC3=O)c2)sc(C)c1C` the Potency was “inactive”. For `COC(=O)C1=C(C(=O)OC)C2(OC1c1ccc(Br)cc1)C(=O)c1ccccc1C2=O` (stereo not given), the Potency was inconclusive [inhibitor, single point].
